Among all 310,000 compounds or so, about 18,000 (5.8%) were called active. Inconclusive means that the source gave no clear call. Such entries were picked first, then a sample of the others. Calls follow the shape of the dose curve; as a rule, active = well fitted inhibition curve with a large enough effect; inconclusive = small, poorly fitted or top-dose-only effect, or another doubt; inactive = no such curve, though single readings can be large or run the other way. No potency is given beside an inconclusive call; the fits are too rough.
Assay: Primary qHTS for delayed death inhibitors of the malarial parasite plastid, 48 hour incubation
Settings: P. falciparum luciferase growth in erythrocytes; series mostly up to 28.7 µM
How it was run: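 Read-out is firefly luciferase luminescence from an integrated reporter in P. falciparum, so falling signal marks reduced parasite growth. Infected erythrocytes were at 2% hematocrit and 0.1% parasitemia (final) in Albumax-supplemented RPMI 1640.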
In the case of `Cc1ccc(-n2nc(C)c3c2OC(N)=C(C#N)C3c2ccccc2F)cc1` (configuration not stated), the Potency is reported as inconclusive [inhibitor, partial curve].
In the case of `O=C(C[n+]1cccc(C(=O)N/N=C/c2ccc(Br)cc2)c1)c1ccccc1`, the Potency is reported as inconclusive [inhibitor, partial curve, poor fit].
In the case of `Cc1cccc(OCC(=O)NC(C)C(=O)N/N=C/c2c(OCc3ccccc3)ccc3ccccc23)c1` (configuration not stated), the Potency is reported as active: 6.57 µM.
With `Cc1nc(N2CCN(S(=O)(=O)c3ccccc3C#N)CC2)c2c(-c3ccccc3)csc2n1` the Potency was active: 10.4 µM.
For `CCOC(=O)CSc1ncnc2c1cnn2-c1ccc(C)cc1`, the Potency was “inactive”.
For `FC(F)Oc1ccc(-n2cc(-c3ccc(Cl)cc3)[n+]3c2CCCCC3)cc1`, the Potency was active: 1.47 µM.
For `Cc1c(C(=O)Nc2cccc(F)c2)cnn1-c1ccccc1`, the Potency was “inactive”.
For `CCOc1ccc(Nc2nc(N)nc(CN(C)C3CCCCC3)n2)cc1`, the Potency was inconclusive [inhibitor, single point].
In the case of `Cc1cc2occ(CC(=O)NC3CCCc4ccccc43)c2cc1C` (configuration not stated), the Potency is reported as “inactive”.
With `Cc1cc(NC(=O)CSCC(=O)N(c2cccc(Cl)c2)C(C(=O)NC2CCCCC2)c2ccc(O)c(O)c2)no1` (configuration not stated) the Potency was inconclusive [inhibitor, partial curve, poor fit].
For `O=C(Nc1ccc(Oc2cccnc2)cc1)C1CCN(Cc2cccc(Cl)c2)CC1`, the Potency was inconclusive [inhibitor, partial curve, poor fit].
For `COC(=O)C1=C(c2ccc(-c3ccccc3)c(F)c2)C[C@@H]2CC[C@H]1N2C(=O)NCc1cc(C)oc1C(F)(F)F`, the Potency was active: 2.33 µM.
For `Cc1cc(=O)[nH]c(N=N/C(=N/Nc2ccccc2C)c2ccccc2)n1`, the Potency was “inactive”.
For `O=[N+]([O-])c1ccc2nc(-c3ccc(OC(F)F)cc3)cn2c1`, the Potency was “inactive”.
In the case of `CC1(C)Cc2c(cnn2-c2ccccc2)C(NC(=O)CCc2ccncc2)C1` (configuration not stated), the Potency is reported as “inactive”.
In the case of `COc1cccc(/C=N/Nc2ncnc(Cl)c2N)c1O`, the Potency is reported as active: 1.65 µM.
For `Cc1nn(Cc2ccccc2Cl)c(C)c1C(=O)N(C)CC(=O)Nc1cccc(F)c1`, the Potency was active: 13.1 µM.
With `CN1CC[n+]2cnc3ccccc3c21` the Potency was inconclusive [inhibitor, single point].
In the case of `Clc1ccccc1CSc1nncn1NC/C=C/c1ccccc1`, the Potency is reported as “inactive”.
In the case of `CCC(C)CCN1C(Nc2ccccc2)=NC[C@@H]1Cc1ccccc1` (some centres not stated), the Potency is reported as inconclusive [inhibitor, single point].
In the case of `CCSc1nc(-c2cccnc2)ccc1C#N`, the Potency is reported as “inactive”.
For `O=C(NCCc1ccco1)C(=O)NCC1OCCCN1S(=O)(=O)c1ccccc1` (configuration not stated), the Potency was inconclusive [inhibitor, partial curve, poor fit].
For `COc1cc2ccccc2cc1C(=O)Nc1ccccc1Cl`, the Potency was inconclusive [inhibitor, partial curve, poor fit].
With `Cn1c2cc(B(O)O)sc2c2cnn(Cc3c(F)cccc3Cl)c(=O)c21` the Potency was active: 13.1 µM.
For `CCOc1ccccc1/C=N/Nc1ccnc(=O)[nH]1`, the Potency was inconclusive [inhibitor, partial curve].
For `C/C(=N\N1CCN(c2ccc(Cl)cc2)CC1)c1cccs1`, the Potency was “inactive”.
In the case of `S=C(S)N1CCCC1`, the Potency is reported as active: 10.4 µM.
With `COc1ccccc1CN(C)C(=O)c1cc2ccccc2o1` the Potency was “inactive”.
In the case of `COc1ccc(S(=O)(=O)n2c(CCN3CCOCC3)nc3ccccc32)cc1`, the Potency is reported as inconclusive [inhibitor, single point].
In the case of `C=C1[C@H]2CC[C@H]3[C@]4(C)C[C@H](O[C@H]5O[C@H](CO)[C@@H](OS(=O)(=O)O)[C@H](OS(=O)(=O)O)[C@H]5OC(=O)CC(C)C)C[C@@H](C(=O)O)[C@H]4CC[C@]3(C2)[C@H]1O`, the Potency is reported as inconclusive [inhibitor, single point].
With `COCC1CCCCN1Cc1cn(-c2ccccc2)nc1-c1ccc2c(c1)OCO2` (configuration not stated) the Potency was inconclusive [inhibitor, single point].
In the case of `Cn1c(SCc2cccc(C#N)c2)nc2ccccc2c1=O`, the Potency is reported as active: 10.4 µM.
For `O=C(NCC1CCCO1)c1cccc(S(=O)(=O)NCc2ccccc2)c1` (configuration not stated), the Potency was “inactive”.
With `O=C(CCCn1c(=O)[nH]c2cc(Cl)ccc2c1=O)NCCCN1CCN(c2ccc(F)cc2)CC1` the Potency was inconclusive [inhibitor, partial curve].
For `CC(C)(C)NC(=O)NC(=O)CN1CCN(S(=O)(=O)c2ccc3c(c2)CCCC3)CC1`, the Potency was active: 9.28 µM.
In the case of `O=C(Nc1ccc2c(c1)OCCO2)c1ccc(Cl)c(S(=O)(=O)N2CCCCC2)c1`, the Potency is reported as active: 6.57 µM.
With `O=C(Nc1nccs1)c1ccc(COc2c(F)c(F)cc(F)c2F)o1` the Potency was “inactive”.
In the case of `COc1cccc(/C=C2/Oc3ccccc3N(CC(=O)NCC3CCCO3)C2=O)c1` (configuration not stated), the Potency is reported as inconclusive [inhibitor, full curve, poor fit].
With `COCCNC(=O)c1cc(S(=O)(=O)N2CCCCC2)ccc1N1CCOCC1` the Potency was “inactive”.
In the case of `CN(C)S(=O)(=O)Oc1ccsc1C(=O)Nc1ccc(Cl)c(Cl)c1`, the Potency is reported as inconclusive [inhibitor, full curve, poor fit].
For `Nc1cccc(CCc2nc3cc4ccccc4cc3[nH]2)c1`, the Potency was “inactive”.
In the case of `Brc1ccc(-c2csc(N3CCC(c4ccccc4)C3)n2)cc1` (configuration not stated), the Potency is reported as “inactive”.
With `O=C1CCN(S(=O)(=O)c2ccccc2)CCN1CCOCc1cccc(F)c1` the Potency was “inactive”.
For `CCCc1cc(=O)oc2cc(OCC(=O)Nc3ccccn3)ccc12`, the Potency was “inactive”.
In the case of `Cc1ccc(CNC(=O)C2CCC(=O)N(Cc3ccc(Cl)cc3)C2)cc1F` (configuration not stated), the Potency is reported as “inactive”.
In the case of `COc1ccc(-c2cc(C(=O)Nc3ccc(C)c(N)c3)c3ccccc3n2)cc1`, the Potency is reported as inconclusive [inhibitor, single point].
In the case of `Cc1ccc(N2C(=O)CC(Sc3ncccc3C(=O)O)C2=O)cc1` (configuration not stated), the Potency is reported as “inactive”.
For `c1ccc(-c2cc(-c3nnc4n3N=C(c3ccc5ccccc5c3)CS4)[nH]n2)cc1`, the Potency was active: 11.7 µM.
For `COc1ccc(/C=N/NC(=O)c2cc(-c3ccccc3OC(C)C)nc3ccccc23)cc1CN1CCOCC1`, the Potency was “inactive”.
In the case of `CN(CCC#N)c1ncnc2scc(-c3ccccc3)c12`, the Potency is reported as inconclusive [inhibitor, partial curve, poor fit].
In the case of `Nc1ccc(C(=O)N/N=C2\CCCc3c2[nH]c2ccccc32)cc1`, the Potency is reported as inconclusive [inhibitor, single point].
In the case of `COCCOC(=O)c1[nH]c2c(c1C)C(=O)CC(c1ccccc1)C2` (configuration not stated), the Potency is reported as inconclusive [inhibitor, single point].
In the case of `O=S(=O)(O)c1cc(O)c2c(N=Nc3ccc(Nc4ccccc4)c4c(S(=O)(=O)O)cccc34)cc(S(=O)(=O)O)cc2c1`, the Potency is reported as inconclusive [inhibitor, partial curve].
In the case of `COc1ccc(-c2nn(-c3ccccc3)cc2/C=C2/SC(=S)N(CCC(=O)O)C2=O)cc1`, the Potency is reported as inconclusive [inhibitor, single point].
In the case of `Cn1c2ccsc2c2ncn(Cc3ccccc3F)c(=O)c21`, the Potency is reported as inconclusive [inhibitor, single point].
For `Cc1cccc(C)c1Nc1c(-c2ccccn2)nc2ccccn12`, the Potency was inconclusive [inhibitor, single point].
In the case of `CN(Cc1nccn1C)C(=O)CC1C(=O)NCCN1CC(c1ccccc1)c1ccccc1` (configuration not stated), the Potency is reported as inconclusive [inhibitor, partial curve, poor fit].
With `CN(Cc1ccccc1)c1nc2c(c(=O)[nH]c(=O)n2C)n1CCCc1ccccc1` the Potency was inconclusive [inhibitor, single point].
In the case of `COC(=O)c1ccc2c(=O)n(Cc3ccco3)c(SCC(=O)Nc3ccc(C)c(Cl)c3)nc2c1`, the Potency is reported as inconclusive [inhibitor, partial curve, poor fit].
In the case of `CC(=O)NC1=NC(=O)/C(=C/c2cc(C)n(-c3ccc(NC(C)=O)cc3)c2C)S1`, the Potency is reported as “inactive”.
With `O=C(COC(=O)/C=C/c1ccc([N+](=O)[O-])cc1)NC1CCCCC1` the Potency was “inactive”.
In the case of `Cc1nc(CC(=O)Nc2nccs2)cs1`, the Potency is reported as “inactive”.
For `Cc1cccc(C)c1NS(=O)(=O)c1ccc(-c2cnc(C3CC3)o2)cc1`, the Potency was inconclusive [inhibitor, single point].
With `CCOC(=O)c1ccc(Nc2cc(C)nc3nc(C)nn23)cc1` the Potency was inconclusive [inhibitor, partial curve].
In the case of `O=C(COc1ccc(S(=O)(=O)N2CCOCC2)cc1)Nc1cccc([N+](=O)[O-])c1`, the Potency is reported as inconclusive [inhibitor, partial curve, poor fit].
With `COc1ccc(NS(=O)(=O)c2ccc(NC(=O)c3ccc(CN4CCOCC4)cc3)cc2)cc1` the Potency was active: 14.7 µM.
With `CC1=C/C(=C(\c2cc(C)c(O)c(Br)c2)c2ccccc2S(=O)(=O)O)C=C(Br)C1=O` the Potency was inconclusive [inhibitor, partial curve].
In the case of `Cc1ccc(OCC(=O)Nc2ccc(S(=O)(=O)N3CCN(C)CC3)cc2)cc1`, the Potency is reported as inconclusive [inhibitor, partial curve, poor fit].
In the case of `CC(C)(C)NC(=O)CSc1nc2[nH]ncc2c(=O)[nH]1`, the Potency is reported as “inactive”.
For `N/C(=N\OC(=O)c1ccc(Cl)cc1)c1[nH]ncc1Br`, the Potency was “inactive”.
With `CCOc1ccccc1N1CN(C2CCCCC2)CNC1=S` the Potency was inconclusive [inhibitor, partial curve, poor fit].
With `COc1cc(C(Nc2ccccn2)c2c(NC(=O)c3ccco3)sc(C)c2C)cc(OC)c1OC` (configuration not stated) the Potency was active: 5.22 µM.
Potency is read from the fitted curve at half-maximal effect; tags tell the direction and shape of the fitted curve.
